# The campaign covered roughly 310,000 compounds. About 14,000 (4.5%) showed an effect of 50% or more. The effect is printed as a negative number. The list shows a part of the results.
# Biological target: human ether-à-go-go-related gene (hERG) potassium channel (human, UniProt Q12809)
# Assay: primary screen, population patch clamp on CHO cells stably expressing hERG
# 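Also: peak tail current of the secondary pulse compared with the same well before compound.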
# human ether-à-go-go-related gene (hERG) potassium channel, sequence (Q12809 whole entry, looked up): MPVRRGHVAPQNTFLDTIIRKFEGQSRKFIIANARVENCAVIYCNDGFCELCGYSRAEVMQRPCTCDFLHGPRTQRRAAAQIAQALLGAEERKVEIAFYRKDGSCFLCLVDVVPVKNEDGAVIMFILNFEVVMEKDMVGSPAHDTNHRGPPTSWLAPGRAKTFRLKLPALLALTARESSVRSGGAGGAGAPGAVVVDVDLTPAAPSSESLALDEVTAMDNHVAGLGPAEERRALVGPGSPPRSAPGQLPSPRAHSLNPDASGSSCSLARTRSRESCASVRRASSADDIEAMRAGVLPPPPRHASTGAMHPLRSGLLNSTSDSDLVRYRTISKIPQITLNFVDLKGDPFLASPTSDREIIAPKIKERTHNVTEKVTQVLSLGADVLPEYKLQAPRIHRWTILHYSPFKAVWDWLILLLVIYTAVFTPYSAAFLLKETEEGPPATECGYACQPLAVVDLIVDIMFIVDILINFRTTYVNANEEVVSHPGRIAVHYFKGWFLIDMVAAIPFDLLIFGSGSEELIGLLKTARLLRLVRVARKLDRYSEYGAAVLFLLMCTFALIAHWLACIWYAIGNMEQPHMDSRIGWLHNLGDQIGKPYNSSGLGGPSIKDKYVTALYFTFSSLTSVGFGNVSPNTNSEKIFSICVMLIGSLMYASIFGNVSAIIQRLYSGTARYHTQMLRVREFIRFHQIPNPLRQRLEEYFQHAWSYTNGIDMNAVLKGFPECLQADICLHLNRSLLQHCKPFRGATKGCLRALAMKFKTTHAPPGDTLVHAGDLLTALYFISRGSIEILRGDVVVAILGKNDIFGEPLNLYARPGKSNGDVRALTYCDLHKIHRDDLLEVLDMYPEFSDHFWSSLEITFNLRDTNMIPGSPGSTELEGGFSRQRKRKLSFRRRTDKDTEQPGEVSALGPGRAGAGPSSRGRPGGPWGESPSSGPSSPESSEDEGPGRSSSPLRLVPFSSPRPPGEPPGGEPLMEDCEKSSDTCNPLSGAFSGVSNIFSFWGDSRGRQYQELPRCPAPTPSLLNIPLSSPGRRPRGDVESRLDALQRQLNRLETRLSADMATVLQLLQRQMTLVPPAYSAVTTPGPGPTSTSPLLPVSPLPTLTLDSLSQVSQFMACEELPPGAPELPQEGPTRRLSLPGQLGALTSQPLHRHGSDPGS
row,SMILES,"hERG current change (%, negative = inhibition) at 10uM [%]"
1,Cc1cc(N=Nc2ccccc2)c(NCC(O)C(O)C(O)CO)cc1C (centres unmarked),-24.1
2,N/C(Cc1ccc([N+](=O)[O-])cc1)=N\OC(=O)Cc1ccccc1,-50.7
3,Cc1ccc(C2CC(c3ccc(Br)cc3)=NN2C(=O)CSC2=NN3CCCC(=O)N=C3S2)cc1 (centres unmarked),17.1
4,CCOC(=O)C1C(=O)CC(C)(O)C(C(=O)OCC)C1c1ccc(N(CC)CC)cc1 (centres unmarked),1.98
5,CS(=O)(=O)N1CCC(c2noc(-c3ccc(C(F)(F)F)cc3)n2)CC1,-1.74
6,COc1ccccc1N(Cc1cc(=O)[nH]c2ccccc12)C(C)=O,15.4
7,CC(=O)N1SC(N)=NC1c1ccccc1 (centres unmarked),2.4
8,O=C(COc1ccc(Cl)cc1Cl)Nc1ccc(CN2CCOCC2)cc1,15.4
9,CCCCC1(Cc2cccc([N+](=O)[O-])c2)C(=O)N(c2ccccc2)N(c2ccccc2)C1=O,18.4
10,CCOc1ccccc1N1CCN(C(=O)c2ccccc2)CC1,11
11,Cc1ccc(NC(=O)NNC(=O)c2snnc2C)cc1,2.71
12,CC(=O)NC(=S)Nc1ccccc1F,30.4
13,O=C(CC1S/C(=N/N=C/c2cccs2)NC1=O)Nc1ccc(Cl)c(Cl)c1 (centres unmarked),9.99
14,CN(CCN1CCOCC1)Cc1nc(-c2ccccc2)no1,10.4
15,CC(=O)Cn1cnc2c(cnn2-c2ccc(C)c(C)c2)c1=O,-4.16
16,CCc1ccc(S(=O)(=O)Nc2cc3c(cc2N2CCOCC2)n(C)c(=O)c(=O)n3C)cc1,-32.1
17,O=C1OCC(CO)(CO)N=C1NNc1cc(Cl)ccc1Cl,5.41
18,O=C(CSc1nc2ccc(Cl)cc2[nH]1)c1c[nH]c2ccccc12,26.8
19,OCCNc1nc(Nc2ccc(Cl)cc2)nc(N2CCCC2)n1,-15.1
20,COc1cccc(OC)c1C(=O)Nc1c(C)n(C)n(-c2ccccc2)c1=O,5.31
21,Cc1ccccc1-c1ccc(=O)n(CC(=O)Nc2ccc(N3CCOCC3)cc2)n1,4.89
22,O=C(Nc1ccccc1)C1CCN(c2nccs2)CC1,-6.38

row,SMILES,"hERG current change (%, negative = inhibition) at 10uM [%]"
1,O=[N+]([O-])c1ccccc1/C=N/NC1=NS(=O)(=O)c2ccccc21,-1.94
2,CCN(CCNC(=O)C1CC(=O)N(CCc2ccccc2)C1)c1ccccc1 (centres unmarked),0.353
3,CC(=O)c1ccc(NCCC(=O)c2ccccc2)cc1,-4.19
4,Cc1occc1C(=O)N/N=C/c1ccccc1[N+](=O)[O-],-6.74
5,O=C(O)C1(P(=O)(c2ccc(Cl)cc2)c2ccc(Cl)cc2)CC1,14.8
6,C=CCOC(=O)C(C#N)c1nc2ccccc2nc1N1CCN(c2ccccc2OCC)CC1 (centres unmarked),8.71
7,COc1ccc(N(CC(=O)NCCSc2ccccn2)S(=O)(=O)c2ccccc2)c(OC)c1,17.1
8,O=[N+]([O-])c1cc2cccnc2c2ncccc12,18.7
9,COc1ccccc1NC(=O)CCC(=O)OCc1ccc(Br)cc1,-1.43
10,CCc1ccc(C2C(C#N)=C(N)N(N(C)C)C3=C2C(=O)CCC3)cc1 (centres unmarked),-3.08
11,Cc1cccc(OCCOC(=O)Nc2ccccc2)c1,22.7
12,CCOC(=O)NC1(Nc2ccc(C)cc2)Oc2ccccc2O1,-6.79
13,NC1=NN=C(N2N=C(c3ccco3)CC2(O)C(F)(F)F)n2ncnc2C1 (centres unmarked),5.62
14,CCOc1ccc(N2CC(C(=O)Nc3ccc4c(c3)OCO4)CC2=O)cc1 (centres unmarked),-15.7
15,Cc1c(Cl)cccc1Nc1ncccc1C(=O)OCC(O)CO (centres unmarked),9.92
16,O=C(O)c1ccc(S(=O)(=O)c2ccc3c(c2)C(=O)N(Cc2ccco2)C3=O)cc1,-0.841
17,NC(=O)OCC(COC(N)=O)c1ccccc1,22.3
18,CCOC(=O)CSCc1cn2cc(Cl)ccc2n1,-11.4
19,CCOC(=O)C1CCCN(C(=O)c2cc(-c3ccccc3)nc3ccccc23)C1 (centres unmarked),-9.9
20,Cc1cccn2c(=O)c3cc(C(N)=S)c(=N)n(CCCOC(C)C)c3nc12,-78.2
21,COc1cccc(-c2noc(C3CCCN(C(=O)Cc4ccccc4)C3)n2)c1 (centres unmarked),-30.3
22,CSc1nc2sc3c(c2c(=O)n1C1CCCCC1)CCN(C)C3,-1.74

# From PMC4336329 (PLoS ONE, 2015)
